From publication PMC9911399, “Two distinct binding modes provide the RNA-binding protein RbFox with extraordinary sequence specificity”
Where a chain is given by its changes, count along the chain named. The list shows a part of the results.

T1: RBFOX1 RRM (Homo sapiens, UniProt Q9NWB1 109-208)
T1 sequence: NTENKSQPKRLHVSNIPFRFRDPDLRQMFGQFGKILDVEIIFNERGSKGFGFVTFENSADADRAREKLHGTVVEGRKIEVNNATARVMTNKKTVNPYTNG

B1: CUCUCAA (DNA:RNA)
RNA: GGGAGACCGGAAUUCAGAUUGUCCCUCUCAAUUAAAUCCCGUCGUAGCCACCA
DNA 1: CAATCTGAATTCCGGTCTCCC
DNA 2: TGGTGGCTACGACGGGATT
B2: UCGACUC (DNA:RNA)
RNA: B1 RNA with C25U, U26C, C27G, U28A, A30U, A31C
DNA 1: CAATCTGAATTCCGGTCTCCC
DNA 2: TGGTGGCTACGACGGGATT
B3: AGGAAUU (DNA:RNA)
RNA: GGGAGACCGGAAUUCAGAUUGUCCAGGAAUUUUAAAUCCCGUCGUAGCCACCA
DNA 1: CAATCTGAATTCCGGTCTCCC
DNA 2: TGGTGGCTACGACGGGATT
B4: UGUUUAU (DNA:RNA)
RNA: B3 RNA with A25U, G27U, A28U, A29U, U30A
DNA 1: CAATCTGAATTCCGGTCTCCC
DNA 2: TGGTGGCTACGACGGGATT
B5: CGCGCCA (DNA:RNA)
RNA: B1 RNA with U26G, U28G, A30C
DNA 1: CAATCTGAATTCCGGTCTCCC
DNA 2: TGGTGGCTACGACGGGATT
B6: AUUGGGG (DNA:RNA)
RNA: B3 RNA with G26U, G27U, A28G, A29G, U30G, U31G
DNA 1: CAATCTGAATTCCGGTCTCCC
DNA 2: TGGTGGCTACGACGGGATT
B7: UGCAUGC (DNA:RNA)
RNA: B3 RNA with A25U, G27C, A29U, U30G, U31C
DNA 1: CAATCTGAATTCCGGTCTCCC
DNA 2: TGGTGGCTACGACGGGATT
B8: UUGGCUA (DNA:RNA)
RNA: B1 RNA with C25U, C27G, U28G, A30U
DNA 1: CAATCTGAATTCCGGTCTCCC
DNA 2: TGGTGGCTACGACGGGATT
B9: GUAACCA (DNA:RNA)
RNA: B1 RNA with C25G, C27A, U28A, A30C
DNA 1: CAATCTGAATTCCGGTCTCCC
DNA 2: TGGTGGCTACGACGGGATT
B10: AGAGCAA (DNA:RNA)
RNA: B1 RNA with C25A, U26G, C27A, U28G
DNA 1: CAATCTGAATTCCGGTCTCCC
DNA 2: TGGTGGCTACGACGGGATT
B11: GUGAUAC (DNA:RNA)
RNA: B3 RNA with A25G, G26U, A29U, U30A, U31C
DNA 1: CAATCTGAATTCCGGTCTCCC
DNA 2: TGGTGGCTACGACGGGATT
B12: AAACCGG (DNA:RNA)
RNA: B3 RNA with G26A, G27A, A28C, A29C, U30G, U31G
DNA 1: CAATCTGAATTCCGGTCTCCC
DNA 2: TGGTGGCTACGACGGGATT
B13: UUAAGUU (DNA:RNA)
RNA: B3 RNA with A25U, G26U, G27A, A29G
DNA 1: CAATCTGAATTCCGGTCTCCC
DNA 2: TGGTGGCTACGACGGGATT
B14: CCGGGGU (DNA:RNA)
RNA: B3 RNA with A25C, G26C, A28G, A29G, U30G
DNA 1: CAATCTGAATTCCGGTCTCCC
DNA 2: TGGTGGCTACGACGGGATT
B15: UCCACAC (DNA:RNA)
RNA: B1 RNA with C25U, U26C, U28A, A31C
DNA 1: CAATCTGAATTCCGGTCTCCC
DNA 2: TGGTGGCTACGACGGGATT
B16: AGUGUUC (DNA:RNA)
RNA: B3 RNA with G27U, A28G, A29U, U31C
DNA 1: CAATCTGAATTCCGGTCTCCC
DNA 2: TGGTGGCTACGACGGGATT
B17: GUGUCCU (DNA:RNA)
RNA: B1 RNA with C25G, C27G, A30C, A31U
DNA 1: CAATCTGAATTCCGGTCTCCC
DNA 2: TGGTGGCTACGACGGGATT
B18: UAGUGUC (DNA:RNA)
RNA: B3 RNA with A25U, G26A, A28U, A29G, U31C
DNA 1: CAATCTGAATTCCGGTCTCCC
DNA 2: TGGTGGCTACGACGGGATT
B19: GUCACCU (DNA:RNA)
RNA: B1 RNA with C25G, U28A, A30C, A31U
DNA 1: CAATCTGAATTCCGGTCTCCC
DNA 2: TGGTGGCTACGACGGGATT
B20: AAGUGAC (DNA:RNA)
RNA: B3 RNA with G26A, A28U, A29G, U30A, U31C
DNA 1: CAATCTGAATTCCGGTCTCCC
DNA 2: TGGTGGCTACGACGGGATT
B21: UGUAUGC (DNA:RNA)
RNA: B3 RNA with A25U, G27U, A29U, U30G, U31C
DNA 1: CAATCTGAATTCCGGTCTCCC
DNA 2: TGGTGGCTACGACGGGATT
B22: GACUGUU (DNA:RNA)
RNA: B3 RNA with A25G, G26A, G27C, A28U, A29G
DNA 1: CAATCTGAATTCCGGTCTCCC
DNA 2: TGGTGGCTACGACGGGATT
B23: CCUUGUU (DNA:RNA)
RNA: B3 RNA with A25C, G26C, G27U, A28U, A29G
DNA 1: CAATCTGAATTCCGGTCTCCC
DNA 2: TGGTGGCTACGACGGGATT
B24: UAAUAGU (DNA:RNA)
RNA: B3 RNA with A25U, G26A, G27A, A28U, U30G
DNA 1: CAATCTGAATTCCGGTCTCCC
DNA 2: TGGTGGCTACGACGGGATT
B25: CCCGUGG (DNA:RNA)
RNA: B1 RNA with U26C, U28G, C29U, A30G, A31G
DNA 1: CAATCTGAATTCCGGTCTCCC
DNA 2: TGGTGGCTACGACGGGATT
B26: CAUAUAG (DNA:RNA)
RNA: B1 RNA with U26A, C27U, U28A, C29U, A31G
DNA 1: CAATCTGAATTCCGGTCTCCC
DNA 2: TGGTGGCTACGACGGGATT
B27: CGGAUGC (DNA:RNA)
RNA: B3 RNA with A25C, A29U, U30G, U31C
DNA 1: CAATCTGAATTCCGGTCTCCC
DNA 2: TGGTGGCTACGACGGGATT
B28: UGGUCGG (DNA:RNA)
RNA: B3 RNA with A25U, A28U, A29C, U30G, U31G
DNA 1: CAATCTGAATTCCGGTCTCCC
DNA 2: TGGTGGCTACGACGGGATT
B29: UUAAGUA (DNA:RNA)
RNA: B3 RNA with A25U, G26U, G27A, A29G, U31A
DNA 1: CAATCTGAATTCCGGTCTCCC
DNA 2: TGGTGGCTACGACGGGATT
B30: AUGGCGU (DNA:RNA)
RNA: B3 RNA with G26U, A28G, A29C, U30G
DNA 1: CAATCTGAATTCCGGTCTCCC
DNA 2: TGGTGGCTACGACGGGATT
B31: GGCCACG (DNA:RNA)
RNA: B3 RNA with A25G, G27C, A28C, U30C, U31G
DNA 1: CAATCTGAATTCCGGTCTCCC
DNA 2: TGGTGGCTACGACGGGATT

What follows are binders tested against T1, RBFOX1 RRM (assay: EMSA; HiTS-Eq, 1 nM pool, 10 min; buffer printed only for the single-RNA assays: 10 mM Tris pH 7.5, 150 mM NaCl, 3.4 mM EDTA, 0.001% NP-40, 30 C). Conditions: tags: His6 N-terminal (pET28a); label: 5' 32P.
Summary of the method: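 A pool of RNA with 7 randomized nucleotides, 5′-radiolabelled and with DNA-annealed flanks, was equilibrated at 1 nM for 10 min in 50 µL with purified RbFox RRM, wild type or mutant, across increasing protein concentrations. Free RNA was separated by 8% native PAGE, excised, reverse-transcribed, barcoded by PCR and sequenced. Relative association constants were obtained from read-count changes of each RNA species versus the control reaction and normalised to the cognate motif.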

Binder | binding signal
B1 | 0.00218 KA relative to UGCAUGU
B2 | 0.0155 KA relative to UGCAUGU
B3 | 0.0135 KA relative to UGCAUGU
B4 | 0.0145 KA relative to UGCAUGU
B5 | 0.00401 KA relative to UGCAUGU
B6 | 0.00842 KA relative to UGCAUGU
B7 | 1.02 KA relative to UGCAUGU
B8 | 0.0186 KA relative to UGCAUGU
B9 | 0.00327 KA relative to UGCAUGU
B10 | 0.0024 KA relative to UGCAUGU
B11 | 0.00876 KA relative to UGCAUGU
B12 | 0.00512 KA relative to UGCAUGU
B13 | 0.0109 KA relative to UGCAUGU
B14 | 0.0122 KA relative to UGCAUGU
B15 | 0.00248 KA relative to UGCAUGU
B16 | 0.0148 KA relative to UGCAUGU

Binder | binding signal
B17 | 0.0156 KA relative to UGCAUGU
B18 | 0.0181 KA relative to UGCAUGU
B19 | 0.00621 KA relative to UGCAUGU
B20 | 0.00446 KA relative to UGCAUGU
B21 | 0.0374 KA relative to UGCAUGU
B22 | 0.023 KA relative to UGCAUGU
B23 | 0.0109 KA relative to UGCAUGU
B24 | 0.0101 KA relative to UGCAUGU
B25 | 0.00465 KA relative to UGCAUGU
B26 | 0.0033 KA relative to UGCAUGU
B27 | 0.0275 KA relative to UGCAUGU
B28 | 0.0166 KA relative to UGCAUGU
B29 | 0.01 KA relative to UGCAUGU
B30 | 0.0199 KA relative to UGCAUGU
B31 | 0.00911 KA relative to UGCAUGU
